The source of these data is a collection of fitness landscapes (doi:10.1016/j.celrep.2020.107928).

Whole data set: some 81,000 sequences, median “one-hybrid fitness for binding NBS DNA” near -0.1, cut for the highest 2% near 0.36. The list shows a part of the results.

The labels stand for the following.
B1: Caulobacter ParB omega fusion; a variant is named by its letters at X, in order, B8GW30 (parent)
chain: MESVVVGEPGMSEGRRGLGRGLSALLGEVDAAPAQAPGEQLGGSREAPIEILQRNPDQPRRTFREEDLEDLSNSIREKGVLQPILVRPSPDTAGEYQIVAGERAWRAAQRAGLKTVPIMVRELDDLAVLEIGIIENVQRADLNVLEEALSYKVLMEKFERTQENIAQTIGKSXSHVANXMRLLXLPDEVQSYLVSGELTAXHARAIAAAADPVALAKQIIEGGLSVRETEALARKAPNLSAGKSKGGRPPRVKDTDTQALESDLSSVLGLDVSIDHRGSTGTLTITYATLEQLDDLCNRLTRGI

The variants in the assay derive from B1. Description: one-hybrid fitness for binding NBS DNA (the Noc-binding site; scaled: cognate 1, non-cognate 0); higher = stronger binding. As to conditions: with NBS DNA site. In short, it runs like this:
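On M9-minus-histidine containing 0.1 mM IPTG and 5 mM 3-AT, E. coli USO cells with a HIS3 reporter, site 19 bp from the promoter, grew 48 hours at 37°C to select Caulobacter ParB libraries randomised at four specificity codons. Plasmids from before and after were Illumina-sequenced, with three replicate libraries pooled and variants under 10 reads left out. Fitness is the log change in variant-to-wild-type read ratio, rescaled against cognate and non-cognate.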
Turning to GLVG, the “one-hybrid fitness for binding NBS DNA” value is not above 0.2.
Consider ADCA, for which the “one-hybrid fitness for binding NBS DNA” value is not above 0.2.
The result for RYQV reads not above 0.2; that for MLFC, not above 0.2.
As for DYLT, the “one-hybrid fitness for binding NBS DNA” value is not above 0.2.
For the variant LEAW, the “one-hybrid fitness for binding NBS DNA” value is not above 0.2.
With PERR, the “one-hybrid fitness for binding NBS DNA” value is not above 0.2.
Consider TAFT, for which the “one-hybrid fitness for binding NBS DNA” value is not above 0.2.
The result for WDRR reads not above 0.2.
Next, PFIC: not above 0.2; PHGW: not above 0.2; RWKG: not above 0.2.
Turning to ARNA, the “one-hybrid fitness for binding NBS DNA” value is not above 0.2.
The result for RICP reads not above 0.2; that for ITNK, not above 0.2.
The result for TSFQ reads not above 0.2.
For YMWL, the “one-hybrid fitness for binding NBS DNA” value is not above 0.2.
Next, AYNG: not above 0.2; TVTM: not above 0.2.
Turning to PLFD, the “one-hybrid fitness for binding NBS DNA” value was not above 0.2.
On to ARYC, for which the “one-hybrid fitness for binding NBS DNA” value is not above 0.2.
On to QVSN, for which the “one-hybrid fitness for binding NBS DNA” value is not above 0.2.
For AYMR, the “one-hybrid fitness for binding NBS DNA” value is not above 0.2.
The result for VIVG reads not above 0.2.
Consider ADKR, for which the “one-hybrid fitness for binding NBS DNA” value was not above 0.2.
For the variant LYAY, the “one-hybrid fitness for binding NBS DNA” value was not above 0.2.
The result for KDVS reads not above 0.2.
Next, DGVM: not above 0.2; TLWF: not above 0.2; RVDI: not above 0.2.
Regarding QHWT, the “one-hybrid fitness for binding NBS DNA” value amounted to 0.375.
In the case of VTPF, the “one-hybrid fitness for binding NBS DNA” value is not above 0.2.
As to REHI, the “one-hybrid fitness for binding NBS DNA” value was not above 0.2.
With DRSF, the “one-hybrid fitness for binding NBS DNA” value was not above 0.2.
For the variant RKGA, the “one-hybrid fitness for binding NBS DNA” value was determined as 0.326.
With KGWC, the “one-hybrid fitness for binding NBS DNA” value was not above 0.2.
Next, CGDV: not above 0.2; TTEI: not above 0.2; QRHL: 0.283.
Next, TYTQ: not above 0.2; DARM: not above 0.2.
The result for QQQL reads not above 0.2.
VLWA: the “one-hybrid fitness for binding NBS DNA” value is not above 0.2.
Consider HTCS, for which the “one-hybrid fitness for binding NBS DNA” value is not above 0.2.
MDWG: the “one-hybrid fitness for binding NBS DNA” value was not above 0.2.
For the variant QSWG, the “one-hybrid fitness for binding NBS DNA” value is not above 0.2.
Next, ALAE: not above 0.2; SYPF: not above 0.2; KTDF: not above 0.2.
For the variant LNVS, the “one-hybrid fitness for binding NBS DNA” value was not above 0.2.
Next, CTRN: not above 0.2.
As to SKSA, the “one-hybrid fitness for binding NBS DNA” value is not above 0.2.
Next, QPRA: not above 0.2; CCGC: not above 0.2.
Consider TLCQ, for which the “one-hybrid fitness for binding NBS DNA” value is not above 0.2.
Next, HRWY: not above 0.2; CRCD: not above 0.2; HWHS: not above 0.2.
RQVF: the “one-hybrid fitness for binding NBS DNA” value was not above 0.2.
Turning to LVNG, the “one-hybrid fitness for binding NBS DNA” value was not above 0.2.
With WLQM, the “one-hybrid fitness for binding NBS DNA” value was not above 0.2.
The result for NNLK reads not above 0.2.
The result for DALM reads not above 0.2; that for HWGS, not above 0.2.
Next, DCRG: not above 0.2; WTTT: not above 0.2; QMSQ: 0.242.
As to MTVT, the “one-hybrid fitness for binding NBS DNA” value is not above 0.2.
Next, VTTS: not above 0.2; NFGG: not above 0.2.
Next, PDCE: not above 0.2; QLEC: not above 0.2.
Next, GEVS: not above 0.2; VHFR: not above 0.2; EPDT: not above 0.2.
With SNQI, the “one-hybrid fitness for binding NBS DNA” value is not above 0.2.
